86 sequences from the supplement of paper PMC3334620 can be followed below.

In all, about 33,000 sequences were measured (“E-score (-0.5 to 0.5)”: median about -0.013, highest 2% from about 0.3 on). Some of the results follow.

The experiment has as its target T1, Msn1 (UniProt P22148).
T1 sequence: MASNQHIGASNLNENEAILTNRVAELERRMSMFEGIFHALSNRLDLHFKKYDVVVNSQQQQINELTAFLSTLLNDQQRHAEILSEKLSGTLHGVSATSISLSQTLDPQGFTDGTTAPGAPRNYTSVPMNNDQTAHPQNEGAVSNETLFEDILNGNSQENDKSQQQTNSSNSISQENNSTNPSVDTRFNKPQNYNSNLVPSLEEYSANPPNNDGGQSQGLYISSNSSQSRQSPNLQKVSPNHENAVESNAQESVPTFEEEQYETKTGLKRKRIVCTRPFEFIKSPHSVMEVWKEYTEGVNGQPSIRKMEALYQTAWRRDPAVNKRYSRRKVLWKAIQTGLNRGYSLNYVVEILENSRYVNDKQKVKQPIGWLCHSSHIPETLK
In words: PBM E-score (8-mer binding enrichment) (E-score (-0.5 to 0.5)); higher = stronger / more preferred TF binding; most listed sequences are background and not binding sites. The following applies: protein concentration: 200 nM; construct: GST-full length. A digest of the protocol:
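Using PURExpress in vitro transcription/translation, GST-tagged yeast transcription factors were made in full-length or DNA-binding-domain form. These were applied at about 100-200 nM to double-stranded universal all-10-mer Agilent arrays, and bound protein was detected with fluorescent anti-GST. Scans were normalised with masliner before the Universal PBM Analysis Suite assigned E-scores to ungapped eight-base words pooled with their reverse complements.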
Take ATATGCTA: the “PBM E-score” value is -0.0322.

GCAAATAA: the “PBM E-score” value came out at 0.0601.

For the sequence CGTCTCTA, the “PBM E-score” value is -0.135.

As to CCTCCCAA, the “PBM E-score” value is -0.179.

Take GGAGGAGA: the “PBM E-score” value is -0.179.

As to CAAATTGC, the “PBM E-score” value was 0.0736.

Regarding ACGCTGCT, the “PBM E-score” value was -0.0404.

GAACTAGA: the “PBM E-score” value was found to be 0.0544.

For CTTGAATA, the “PBM E-score” value turned out to be 0.131.

As to AGCAATGG, the “PBM E-score” value is -0.216.

For the sequence GCTTCTAC, the “PBM E-score” value was -0.0502.

For the sequence GACCAGTC, the “PBM E-score” value is -0.252.

Turning to ATGGTGAG, the “PBM E-score” value is -0.222.

AGGACAGA: the “PBM E-score” value is 0.437.

With ACTAGCAC, the “PBM E-score” value is -0.168.

In the case of CCGGTGAC, the “PBM E-score” value is -0.0965.

As for CTCCGATA, the “PBM E-score” value was 0.0677.

On to ATTTTATA, for which the “PBM E-score” value amounted to 0.22.

As to AGTTGTAA, the “PBM E-score” value was -0.062.

As for ATCTGCCC, the “PBM E-score” value is -0.163.

For AAACTTAG, the “PBM E-score” value was -0.0183.

As to TCGATACA, the “PBM E-score” value was determined as 0.155.

For the sequence CATAGATA, the “PBM E-score” value amounted to 0.126.

For the sequence TTCGCGAA, the “PBM E-score” value is 0.1.

As to CGGAAAGC, the “PBM E-score” value amounted to 0.0609.

Turning to AAGGTTCC, the “PBM E-score” value was -0.0412.

On to ATCGCACC, for which the “PBM E-score” value is -0.172.

Regarding CCAAGTGA, the “PBM E-score” value is -0.0352.

GGCGTACC: the “PBM E-score” value was -0.192.

As to AATGCGGG, the “PBM E-score” value worked out at 0.145.

As to ATGGAAGC, the “PBM E-score” value was -0.115.

Turning to CAGACATC, the “PBM E-score” value amounted to 0.246.

Take ATTAGGAG: the “PBM E-score” value is 0.0942.

As for CCGATAAC, the “PBM E-score” value came out at 0.172.

For ACAGTGAT, the “PBM E-score” value was 0.129.

As for GTTTTGAA, the “PBM E-score” value was determined as 0.158.

GGCGGTAA: the “PBM E-score” value was 0.115.

Take CCTGATAA: the “PBM E-score” value amounted to 0.0313.

With CCCCTAAA, the “PBM E-score” value was -0.0798.

GGATCGCA: the “PBM E-score” value is -0.0435.

CATGGAGA: the “PBM E-score” value is -0.00044.

As for CCAGGAGA, the “PBM E-score” value was -0.164.

For TAACGGTA, the “PBM E-score” value worked out at 0.0466.

As to TACTTTGA, the “PBM E-score” value is -0.0407.

Turning to GGGTCCGA, the “PBM E-score” value was -0.115.

As to CATCGCTC, the “PBM E-score” value was -0.202.

For the sequence CCTAACAA, the “PBM E-score” value worked out at 0.224.

Regarding CAGGCTGC, the “PBM E-score” value was -0.131.

On to GTATTAAA, for which the “PBM E-score” value came to 0.261.

Regarding AGTCGTCC, the “PBM E-score” value is -0.0628.

Take AAGCATAC: the “PBM E-score” value was 0.0589.

For ACTGCCAC, the “PBM E-score” value was -0.0354.

Regarding GTTTTCAA, the “PBM E-score” value is 0.281.

As to GGAGCATA, the “PBM E-score” value was -0.021.

With ACTTGGTC, the “PBM E-score” value is 0.0793.

Take ACTATGGG: the “PBM E-score” value is -0.169.

In the case of CCGCCACG, the “PBM E-score” value came out at 0.0559.

For CACCGTTC, the “PBM E-score” value was -0.0461.

With ATCATGGC, the “PBM E-score” value is -0.129.

Take ACATGTCG: the “PBM E-score” value is 0.311.

GGCGCTGA: the “PBM E-score” value is -0.166.

For AATCGTTA, the “PBM E-score” value was -0.0527.

For the sequence TCCACGGA, the “PBM E-score” value turned out to be 0.299.

For the sequence ATATGCCC, the “PBM E-score” value came out at 0.0172.

Turning to AGGAACTA, the “PBM E-score” value is -0.0727.

ATAGGAAG: the “PBM E-score” value was -0.192.

Turning to ATGCCAGG, the “PBM E-score” value is -0.0762.

For the sequence CGTGATCA, the “PBM E-score” value came to 0.173.

Take ACTGAGGG: the “PBM E-score” value is -0.159.

As to CTATCATC, the “PBM E-score” value was determined as 0.0314.

Regarding CGGTCCAA, the “PBM E-score” value was -0.0855.

Take ATAAAGCA: the “PBM E-score” value stood at 0.093.

Consider ATATCAAG, for which the “PBM E-score” value turned out to be 0.0534.

Consider AGATGTAA, for which the “PBM E-score” value was found to be 0.102.

For CCCCTGAG, the “PBM E-score” value is -0.297.

For the sequence CATACAGG, the “PBM E-score” value is -0.0332.

As to ATAGTTTA, the “PBM E-score” value was -0.103.

Take CTAGACGA: the “PBM E-score” value is -0.156.

As for GCTTGAGA, the “PBM E-score” value was -0.138.

Turning to AGTACGGC, the “PBM E-score” value was -0.0924.

AGACTGGG: the “PBM E-score” value was -0.0326.

ACACCGGG: the “PBM E-score” value is -0.155.

Consider CTATGGAG, for which the “PBM E-score” value amounted to 0.00025.

For the sequence TATTCTGA, the “PBM E-score” value was -0.0984.

Consider AAGTTTAC, for which the “PBM E-score” value is -0.00938.

For GATGACCC, the “PBM E-score” value was -0.0627.
